Data published in publication PMC4336329 (PLoS ONE, 2015).
Among all 310,000 compounds or so, about 14,000 (4.5%) showed an effect of 50% or more. The effect is printed as a negative number. This is one part of the list.

target: human ether-à-go-go-related gene (hERG) potassium channel (human, UniProt Q12809); assay: primary screen, population patch clamp on CHO cells stably expressing hERG
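Further: peak tail current of the secondary pulse compared with the same well before compound.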

Chain of human ether-à-go-go-related gene (hERG) potassium channel (Q12809 whole entry, looked up): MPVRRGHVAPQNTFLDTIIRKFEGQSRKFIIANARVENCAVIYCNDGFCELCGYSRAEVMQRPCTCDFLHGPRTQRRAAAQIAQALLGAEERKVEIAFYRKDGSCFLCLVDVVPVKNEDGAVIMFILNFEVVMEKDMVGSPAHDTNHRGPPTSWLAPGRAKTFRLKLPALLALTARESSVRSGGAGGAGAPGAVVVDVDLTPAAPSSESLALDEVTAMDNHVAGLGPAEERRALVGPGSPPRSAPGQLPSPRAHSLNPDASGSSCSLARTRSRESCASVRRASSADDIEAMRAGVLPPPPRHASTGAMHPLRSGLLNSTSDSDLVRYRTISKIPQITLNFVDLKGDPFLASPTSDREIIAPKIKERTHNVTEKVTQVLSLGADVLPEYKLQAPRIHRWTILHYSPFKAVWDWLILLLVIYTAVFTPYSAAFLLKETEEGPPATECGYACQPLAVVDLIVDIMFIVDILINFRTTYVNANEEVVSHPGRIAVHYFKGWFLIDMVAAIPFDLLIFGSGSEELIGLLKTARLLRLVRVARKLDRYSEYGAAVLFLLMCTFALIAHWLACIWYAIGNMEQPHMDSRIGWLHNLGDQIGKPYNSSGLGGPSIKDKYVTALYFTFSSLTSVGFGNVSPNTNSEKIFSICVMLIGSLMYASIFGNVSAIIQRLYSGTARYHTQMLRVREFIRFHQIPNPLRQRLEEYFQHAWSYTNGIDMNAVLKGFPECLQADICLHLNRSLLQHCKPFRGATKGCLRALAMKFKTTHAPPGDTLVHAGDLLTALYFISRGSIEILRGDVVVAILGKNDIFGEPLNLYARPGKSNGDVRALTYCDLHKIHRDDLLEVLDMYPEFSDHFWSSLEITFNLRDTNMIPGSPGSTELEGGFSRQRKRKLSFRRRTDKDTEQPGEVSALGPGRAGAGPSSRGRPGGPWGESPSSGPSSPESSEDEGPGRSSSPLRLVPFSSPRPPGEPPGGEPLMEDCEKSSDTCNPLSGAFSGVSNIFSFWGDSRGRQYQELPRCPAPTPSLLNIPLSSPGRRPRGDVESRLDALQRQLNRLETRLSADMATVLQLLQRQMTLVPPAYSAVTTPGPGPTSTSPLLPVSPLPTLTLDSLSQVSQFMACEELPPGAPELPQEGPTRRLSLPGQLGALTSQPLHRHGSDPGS

| SMILES | hERG current change (%, negative = inhibition) at 10uM [%] |
| --- | --- |
| CCCC(=O)NCCc1ccc(F)cc1 | 8.94 |
| CC1(C)Cc2nc(-c3ccccc3)nc(SCC(=O)N3CCCC3)c2CO1 | -31.6 |
| CCN(CC)c1ccc(N=Cc2c(O)n(-c3ccccc3C)c(=O)[nH]c2=O)cc1 | -29.2 |
| CCOC(=O)C1(CCOc2ccccc2)CCN(Cc2ccc3nonc3c2)CC1 | -17 |
| CSc1ccccc1NC(=O)Nc1cccc2ccccc12 | 16 |
| COc1ccc(C2NC(=O)c3sc(=S)n(-c4ccccc4)c3N2)cc1 (centres unmarked) | -19.1 |
| Nn1c(SCC(=O)Nc2cc(C(F)(F)F)ccc2Cl)nncc1=O | -18.9 |
| COc1ccc(NC(=O)CSc2nnc(NC(=O)C3CCC3)s2)c(OC)c1 | 12.6 |
| COc1ccc(CNC(=O)CCC(=O)Nc2nnc(C(C)C)s2)cc1 | -7.21 |
| O=C(COC(=O)CCCC1=NS(=O)(=O)c2ccccc2N1)Nc1ccc(Br)cc1 | 5.63 |
| Cc1ccccc1N1CCN(C2CCCN(C(=O)CCC(F)(F)F)C2)CC1 (centres unmarked) | -47.3 |
| CCOC(=O)c1ccc(Oc2nc(NC)nc(Nc3ccccc3)n2)cc1 | -32.8 |
| CCn1c(/C=C/c2ccc(O)cc2)nc2ccccc2c1=O | 10.2 |
| Cc1ccc(/C=N/NC(=O)COc2ccc(Cl)c(C)c2)o1 | 34.7 |
| Cc1ccc(NC(=O)CCc2c(C)nn(-c3ccc(N4CCOCC4)nn3)c2C)cc1F | -10.2 |
| COc1cc(/C=C/C(=O)OCC(=O)Nc2ccc(C)cc2[N+](=O)[O-])ccc1O | -20.5 |
| O=C(NC(=S)Nc1ccc(Cc2ccncc2)cc1)c1ccccc1Cl | 5.52 |
| COc1ccc(N(C)C(=O)Cc2c(C(=O)O)n(C)c3ccccc23)cc1 | 27.3 |
| O=C(c1ccco1)N1CCN=C1SCc1ccccc1Cl | -21.4 |
| Cc1nc2ccn(Cc3ccccc3)c(=O)c2cc1C(=O)N1CCN(c2ccc(F)cc2)CC1 | -78.5 |
| CN1CCCN(C(=O)c2cccc3ccccc23)CC1 | 7.9 |
| O=C(O)CCC(=O)Nc1cccc(-c2csc(-c3ccccc3)n2)c1 | 4.06 |

| SMILES | hERG current change (%, negative = inhibition) at 10uM [%] |
| --- | --- |
| Cc1cc(OC(C)C(=O)NCc2ccccn2)c2c(C)c(Cc3ccccc3)c(=O)oc2c1 (centres unmarked) | -0.744 |
| CC1(C)CC(CCN(Cc2ccccc2)C(=O)c2ccco2)(c2ccccc2)CCO1 (centres unmarked) | 4.47 |
| CCN(CC)C(=O)Cn1cc(C=C2C(=O)N(C)C(=O)N(C)C2=O)c2ccccc21 | 9.96 |
| Cc1ccc(NC(=O)CCc2ccc(C)o2)c(C)c1 | 9.83 |
| CCCn1nc2ccccc2c1P(=O)(N1CCOCC1)N1CCOCC1 | 3.81 |
| Cc1ccc2nc(N=C(N)N)nc(C)c2c1 | 18.3 |
| Fc1ccc(Nc2nc(Oc3ccccc3F)nc(N3CCCC3)n2)cc1 | 11.9 |
| O=C(Nc1ccc(SC(F)F)cc1)c1ccccc1F | 12 |
| O=C1CN(CC(=O)N2CCOCC2)c2ccccc2O1 | 10.7 |
| Cl.OC(CNC1CCCC1)COc1ccccc1Br (centres unmarked) | 7.79 |
| O=C(N/N=C/c1ccccc1Cl)c1nc2ccc([N+](=O)[O-])cc2c(=O)[nH]1 | -23.2 |
| COc1ccc2c(c1)C(=O)CC(c1ccc3c(c1)OCCO3)O2 (centres unmarked) | 14.2 |
| O=C(O)c1ccccc1C1=Nc2ccc(O)cc2Oc2cc(O)ccc21 | 13.8 |
| COc1cccc(N2CCN(CC(=O)C34CC5CC(CC(C5)C3)C4)CC2)c1 | 13.8 |
| C=CCN(CC=C)C(=O)C(=O)c1cc(C)n(-c2ccc([N+](=O)[O-])cc2)c1C | -63.4 |
| CCCCN(C(=O)CSc1ncn[nH]1)c1c(N)n(Cc2ccccc2)c(=O)[nH]c1=O | 12.1 |
| Cc1ccc(Br)cc1S(=O)(=O)Nc1cccnc1 | 22.1 |
| O=C(NCCS(=O)(=O)N1CCCCCC1)c1ccccc1 | -5.12 |
| CCCCN(C)C(=S)Nc1ccc(Oc2ccccc2)cc1 | -2.38 |
| O=C(Nn1cnnc1)c1ccccc1CCc1ccccc1 | 3.69 |
| CCNS(=O)(=O)c1ccc(CCC(=O)Nc2ccc(C(=O)OC)cc2)cc1 | 13.1 |
| O=C(COc1ccccc1Br)NCCc1nc2ccccc2[nH]1 | -65.3 |

| SMILES | hERG current change (%, negative = inhibition) at 10uM [%] |
| --- | --- |
| C#CCOCCOCCOCCNc1nc(N2CCN(C(=O)CCCCCCCCCCNC(=O)[C@@H](CCSC)n3cc(CCO)nn3)CC2)nc(N2CCN(C(=O)CCCCCCCCCCNC(=O)[C@H](CCC(=O)O)n3cc(CCCCCN)nn3)CC2)n1 | -7.71 |
| Cc1cc(C)c(NC(=O)COC(=O)c2cc([N+](=O)[O-])ccc2N2CCOCC2)c(C)c1 | 17.2 |
| O=C(NCC1CC1)c1ccc2c3n(nc2c1)-c1ccccc1CO3 | -17.1 |
| COC(=O)C(c1ccccc1)N1CCCCCC1.Cl (centres unmarked) | 10.8 |
| CS(=O)(=O)N(CCc1ccccc1)CC(=O)N1CCc2ccccc2C1 | -33.2 |
| O=C(Nc1ccc(S(=O)(=O)Nc2nccs2)cc1)c1cc(-c2ccccn2)nc2ccccc12 | 4.36 |
| CCN(CC(=O)Nc1ccccc1C(F)(F)F)C(=O)c1ccc2c(=O)n3c(nc2c1)CCC3 | -2.85 |
| O=[N+]([O-])c1ccc(/C=N/n2cn[nH]c2=S)cc1 | 33 |
| O=C(CN1CCN(Cc2ccccc2)C1=O)NCc1cccs1 | 1.2 |
| COc1ccc(N(CC(O)CN2C(=O)NC(C)(C)C2=O)S(=O)(=O)c2ccc(C)cc2)cc1 (centres unmarked) | -11.6 |
| CC1(C(=O)Oc2ccccc2)Cc2ccccc2C(=O)O1 (centres unmarked) | -8.04 |
| CCCc1cc(=O)oc2cc(C)cc(OCC(=O)Nc3ccccn3)c12 | 13.2 |
| CCOC(=O)C1CCN(C(=O)CN2C(=O)c3cccnc3Oc3ccccc32)CC1 | 6.87 |
| Cc1ccc(-n2c(Cc3cccn3C)nnc2SCC(=O)NCc2ccc3c(c2)OCO3)cc1 | -36 |
| O=C(c1ccc(CS(=O)Cc2ccc(Cl)cc2)o1)N1CCN(c2ccccc2F)CC1 (centres unmarked) | -55.8 |
| O=C(NCCc1ccccc1)c1cnc(Cl)c(Cl)c1 | 11.9 |
| CCO[C@H]1OC(C(=O)NCc2ccccc2)=C[C@@H](C)[C@@H]1CCCO | -9.84 |
| Cc1cc(C(=O)N/N=C/c2cc(Br)cc(Br)c2OC(=O)c2ccccc2)n[nH]1 | 16.2 |
| Cc1ccc(CC(=O)Nc2ccc(Cl)cn2)cc1 | 5.57 |
| CCN(CC)c1ccc(NC(=O)/C=C\c2ccccc2Cl)cc1 | 0.239 |
| CCc1nc(NCCCN2CCOCC2)c2oc3ccccc3c2n1 | -26.6 |
| CN(C)CCNC(=O)Cn1nc(-c2ccc(Cl)cc2)ccc1=O | -18.2 |

| SMILES | hERG current change (%, negative = inhibition) at 10uM [%] |
| --- | --- |
| O=C(COc1ccc(/C=N/NS(=O)(=O)c2ccccc2)cc1)NCCc1ccccc1 | 19.5 |
| Clc1cccc(CN2CCc3c([nH]c4ccccc34)C2)c1Cl | -8.21 |
| CC(=O)Nc1ccc(NC(=O)c2ccccc2Sc2ccc([N+](=O)[O-])cc2Cl)cc1 | -4.4 |
| CCOc1ccc(CCNC(=O)CS(=O)(=O)Cc2nc(-c3cccc(OC)c3)oc2C)cc1 | 0.111 |
| CN1CCc2c(sc(NC(=O)c3ccc(C(=O)c4ccccc4)cc3)c2C(N)=O)C1.Cl | 11.5 |
| CN=C(Nc1cccc(OC)c1)SC1CC(=O)N(c2ccc(C(=O)O)cc2)C1=O (centres unmarked) | 4.58 |
| CSc1ccc(/C=C(\NC(=O)c2ccccc2)C(=O)NN)cc1 | 9.02 |
| O=C(Cn1ncc2ccccc21)N1CCC2(CC1)OCCO2 | 5.47 |
| Cc1ccc(CCNC(=O)c2nnn(-c3cccc(C)c3)c2N)cc1 | 2.33 |
| CC1(C)C2CC=C(/C=N/NC(=O)c3ccccc3Br)C1C2 (centres unmarked) | -2.58 |
| O=C(NCc1ccccc1)C1=C[C@@H](c2ccc(C(F)(F)F)cc2)C[C@@H](OCCCCO)O1 | -25.8 |
| COc1cccc(C(=O)COC(=O)c2cccs2)c1 | 10.6 |
| COc1ccc(C(=O)c2ccccc2Cl)cc1OC | -10.6 |
| CSCCC(NC(=O)c1ccccc1)C(=O)NCCCn1nc(C)cc1C (centres unmarked) | -2.56 |
| Cc1ccc(S(=O)(=O)NCc2ccc(C(=O)N3CCN(c4ccccc4)CC3)cc2)cc1 | -18.6 |
| Cc1noc(COc2ccccc2OCc2onc(C)c2Cl)c1Cl | 7.29 |
| Cc1ccccc1NC(=O)CCN1CCN(Cc2ccccc2)CC1 | -27.2 |
| Cc1ccc(C)c(N2CCN(S(=O)(=O)c3c(C(=O)N4CCCCC4)c(C)n(C)c3C)CC2)c1 | -5.82 |
| CCOC(=O)NNc1ccccc1 | 6.88 |
| O=C(NCCc1ccccc1)c1ccc(Cl)cc1[N+](=O)[O-] | -0.169 |
